Data: paper PMC10726135
Some of the results follow. At the low end of the ranking, values are background and their order means little. Measured with an extract: partners may take part in the binding.

target: T1, HNF4alpha8 (COS-7 nuclear extract) (UniProt P41235-5); assay: protein-binding microarray; settings: COS-7 nuclear extract on double-stranded Agilent 4x180k PBM; binding buffer, salt, pH and temperature not given; high values mean tight binding; double strand, one strand shown; sequences stand for … in …GCCTAGGGAGATTAGAGTATCGGTCGA
T1 sequence: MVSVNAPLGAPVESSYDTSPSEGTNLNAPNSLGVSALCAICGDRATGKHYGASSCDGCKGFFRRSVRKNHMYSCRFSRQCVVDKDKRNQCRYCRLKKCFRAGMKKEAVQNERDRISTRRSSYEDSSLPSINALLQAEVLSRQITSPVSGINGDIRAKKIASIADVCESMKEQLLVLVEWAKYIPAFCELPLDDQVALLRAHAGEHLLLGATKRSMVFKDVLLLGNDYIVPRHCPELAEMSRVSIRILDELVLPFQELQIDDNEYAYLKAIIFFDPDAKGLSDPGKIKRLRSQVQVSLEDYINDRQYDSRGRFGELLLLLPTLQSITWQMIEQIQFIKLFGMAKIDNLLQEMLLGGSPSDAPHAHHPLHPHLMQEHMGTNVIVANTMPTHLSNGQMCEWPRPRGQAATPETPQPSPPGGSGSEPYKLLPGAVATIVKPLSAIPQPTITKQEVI

Sequence	binding signal (log2 normalized intensity)
ACAGGGTGATCAGAGATCTAGGTGAGGGAT	-1.22
TAACTGTATAACCTGGAACTGAAAGAGACC	-1.25
GAGTGGGAGGCTGGGGCCTCCTGGCTGGGC	-1.34
GATCACCCAGGTCCAAGTCACTATCACCTC	-0.309
GGGCGTGTGTTAGACTTTGGACCTGGCCTG	7.98
AAACTGGGCAAAGGTCAGGATCTCAGCCGC	5.23
GAAGATAGCTTTAAAGACCAAAGATCACAG	2.14
GGTTAAAAGGACAACCTTCGGCCGGGCACG	1.39
GGGATTATGGCCGGCCCCTGGAATGCTGAG	-1.26
AAACATCTAATGAACTGATTAGAACATTAA	-0.884
GGGCCCAGGGTTCTCTGTGACCTTTGGAAG	9.36
TGGACTATGTTTACACAGCCTTGTAGCAAG	-1.03
AGCAAGTTTTATATGAAAACAAAGGAAACC	0.0339
AAACGTATGACTTTGGAGCACTCATTCCTA	-1.28
GAGTGTCCTGCCCCCTGGAGGAGTGAGGGA	1.45
CAGAAGAAACATGCGATACTTGACCTGCAA	2.7
TTACACAAAATCGCCACTACAAAGGGAATC	-1.36
CTCAGGAACTTTGTTTGTGTTTCCCTCCCT	3.05
ATGCAACTTTTAATCAGAGCAGTTCAGCTC	-1.38
TTCCAGCCTCCTGCTCTGGGCTTTCTCTGC	-1.34
CTTCCATTGTGATTCCTGTGATACCTTCTT	1.69
GCTACTGTGGTTCCCAAGAAGAGCCCAGAC	-1.36
GCACAGGGTTGAGTGGTGACTGAAGTCCAA	2.43
GACTGATAAGGCTAAGTGGAGGATTTGGGT	-1.13

Sequence	binding signal (log2 normalized intensity)
CCACGCACTCGCCTGACTCCCTGACGCCAT	-1.36
CTAAAGTCCAAAGTCTCAACTAAGTGTTAT	4.57
TTTGTGTGTTTAATGTTTTCATTCTGATTT	1.31
AGGAGAATCGCTTGAACCCAGGGGACGGAA	-0.93
TCCAAATGATAATGCCAAGGACTGAAAGAA	-1.14
CCTGGGCTGGAAAGGCCACCACAAACCCTT	-1.32
GCTTGAGGCCAGCTCATAGGGATCAGATAA	-1.27
AAAATAGGGTAGTTTGGAGATGCCGTTAAG	-0.1
GGACTTTACACAGACCTTTACCCACGGTCA	3.14
CCATTTTGCAATTGACAAATGGCTTGTGCT	-1.41
CCTCCCAGAGCATTGTTTATTGTTGCTGAT	0.868
CGCGTCGAACTAGCTTGGTGCAGGGGCGGG	-1.08
CACATACACCTGCGTGTACTAAGGTCTTAA	1.24
CATGTAACTGCTATTGGTTGTCAGACTGGT	1.6
CTTGAAAGTAAGCAGACACTGAAAGATGGT	-1.22
GTTGCAAATTATTACTCCCACCGTGTGTGC	0.679
GAAGAATGGAATTGCCATTGACTGAGATAG	-0.91
GGGACCAAGGGTCAGTTCATTAAAAAAAAA	2.13
CTCGCTCGCCCGAGCGCTGCTTCTCGTCCC	-1.3
ACATACAACCATCAAAGGTCACTTTACAGA	3.13
AGAGGTCGATCTGATCTTAAGTTGTACCTG	3.09
AGGAGGCACTGATAAGCGTATTTCAACCTT	0.651
CCCTGTAAGTCCAAACAAAATACAAACACG	0.376
TGCAATGTTTCCAAACCCCTCGGGACCATG	-1.28

Sequence	binding signal (log2 normalized intensity)
GATAGCAAAATCAATAAATCACACGAAACA	-1.24
AAGAGGAGAAGAATTTACCCAACTCATCAG	-1.14
AACTGTTTCTATGTGACCTTCACCCTGCTG	4.81
CACAGCGCAGCACACTGCAGCGGCATTCTC	-1.35
TAAAAAAAAAAAAAAATACTCCTATCACCG	-1.27
CCAGCCTGTGGTGGGAAACTTCCACTAACT	-1.35
ATGGGGCATGACTTGTTATCACCTGCTGGA	-0.0271
AGCTATGATAAAGGTTTGGGTTGGATTTGC	0.956
TAGAAGGCAGAGAAAGATAGGAGATAAGGG	-1.16
GGGGGTAAAGTGGATTGCTGGCCTTTTATC	0.842
AAAGTTCAGGTTTCAAATACTCCAGTCATT	0.305
CAAGGAAAGATAAATAGTGACAAATTGTAT	-0.0347
CTATTGCAGTAACGGCAGGGTTGTGCAGGA	0.0813
GAAGAATAGATTCCATAGATAAGAGCTGAG	-1.31
GAGACAGCTCCACAGCTGGACTTTGGCTGC	6.17
GGCCATGTCTCAGCCCAAGATCAAAAGGCA	-1.23
AGACAAGCTCTGTTTGTTTTGTTACACATC	0.811
TACTGGACAGCCAGCTGGTAAATAAAGGAA	-1.22
AGTCCTCTCTCGCGAGAGCCGAAGTCTCTC	-1.26
TATTTGCTGAGGAAGACTTCATTCAGGTAG	-0.728
CCAAGATGCTAAGGCAAGATCATTCCAGGA	-1.3
AGAGGTGAGACACGTGTGCCATGCCAAAGA	-1.19
GGTCAGAAAAAGCTGACGCCCCACCCCCTC	5.89
GTATAGTGACTTCCTTCCAAAGGTCACAGT	5.47
